This is one part of the list. One pool of 16,384 single-stranded DNAs met each Rep nickase domain in vitro (1 h at 37 °C, 3 µM enzyme); the outer parts of the 90-letter strands are left off. Uncut reads are compared with the no-enzyme pool on a log2 scale; uncut sequences lie near 0, cut ones below; no hit call is given. The scaling is to total reads; where an enzyme cuts many sequences, the uncut ones exceed 0.
How the values were obtained:
Experiment in all cases: uncleaved DNA left, log2 of reads against the no-enzyme library (log2 ratio); higher = less cleavage (more negative = more Rep cleavage of the k-mer); sequences stand for … in CTCGTCCG…ACCGGAGA
[1] = system: T1, Rep nickase domain of Muscovy duck circovirus
T1 sequence (residues 1-111 of Rep, tag left off): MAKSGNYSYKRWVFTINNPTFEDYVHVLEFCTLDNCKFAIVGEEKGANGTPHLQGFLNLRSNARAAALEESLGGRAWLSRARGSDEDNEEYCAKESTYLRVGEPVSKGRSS
Procedure: (§1)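 A pool of 90-nt single-stranded DNAs with seven random bases just before the constant AC of the nick site (name = the seven bases) was cut by 3 µM recombinant His6-SUMO-tagged Rep nickase domain (300 nM DNA, 50 mM HEPES pH 8.0, 50 mM NaCl, 1 mM MnCl2, 1 h, 37 °C, three replicates). Uncut DNA was amplified and sequenced.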

[2] = system: T2, Rep nickase domain of banana bunchy top virus
T2 sequence (residues 1-94 of Rep, tag left off): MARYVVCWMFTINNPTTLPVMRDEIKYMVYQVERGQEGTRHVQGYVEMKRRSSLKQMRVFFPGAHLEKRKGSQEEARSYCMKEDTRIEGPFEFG
Procedure: as §1

[3] = system: T3, Rep nickase domain of cabbage leaf curl virus
T3 sequence (residues 1-116 of Rep, tag left off): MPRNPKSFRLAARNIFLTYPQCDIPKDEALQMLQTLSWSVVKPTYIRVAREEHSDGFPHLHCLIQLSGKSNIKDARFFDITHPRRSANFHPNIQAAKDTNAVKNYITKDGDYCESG
Procedure: as §1

[4] = system: T4, Rep nickase domain of chickpea chlorotic dwarf virus
T4 sequence (residues 1-124 of Rep, tag left off): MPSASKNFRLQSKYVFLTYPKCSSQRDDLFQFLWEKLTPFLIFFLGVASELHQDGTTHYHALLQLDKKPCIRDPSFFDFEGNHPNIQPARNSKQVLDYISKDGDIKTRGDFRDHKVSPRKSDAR
Procedure: as §1

[5] = system: T5, Rep nickase domain of faba bean necrotic yellows virus
T5 sequence (residues 1-98 of Rep, tag left off): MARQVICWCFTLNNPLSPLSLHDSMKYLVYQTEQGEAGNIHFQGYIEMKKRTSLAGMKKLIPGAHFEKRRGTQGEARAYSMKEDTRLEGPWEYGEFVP
Procedure: as §1

[6] = system: T6, Rep nickase domain of maize striate mosaic virus
T6 sequence (residues 1-117 of Rep, tag left off): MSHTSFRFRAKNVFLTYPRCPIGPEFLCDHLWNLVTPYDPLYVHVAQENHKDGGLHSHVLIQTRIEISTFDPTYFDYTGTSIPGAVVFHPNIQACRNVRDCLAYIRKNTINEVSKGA
Procedure: as §1

[7] = system: T7, Rep nickase domain of porcine circovirus 2
T7 sequence (residues 2-116 of Rep, tag left off): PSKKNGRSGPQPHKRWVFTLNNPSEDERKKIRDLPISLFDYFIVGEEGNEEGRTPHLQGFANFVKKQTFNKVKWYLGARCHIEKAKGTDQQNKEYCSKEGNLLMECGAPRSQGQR
Procedure: as §1

[8] = system: T8, Rep nickase domain of tomato golden mosaic virus
T8 sequence (residues 1-124 of Rep, tag left off): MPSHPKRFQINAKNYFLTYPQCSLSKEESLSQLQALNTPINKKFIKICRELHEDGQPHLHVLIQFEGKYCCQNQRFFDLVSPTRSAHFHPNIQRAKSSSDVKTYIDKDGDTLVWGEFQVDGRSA
Procedure: as §1

[9] = system: T9, Rep nickase domain of tomato yellow leaf curl virus
T9 sequence (residues 1-136 of Rep, tag left off): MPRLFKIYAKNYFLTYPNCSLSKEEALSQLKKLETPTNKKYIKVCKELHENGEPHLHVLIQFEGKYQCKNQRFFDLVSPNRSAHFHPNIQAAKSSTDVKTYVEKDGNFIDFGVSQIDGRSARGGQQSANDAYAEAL
Procedure: as §1

[10] = system: T10, Rep nickase domain of wheat dwarf virus
T10 sequence (residues 1-137 of Rep, tag left off): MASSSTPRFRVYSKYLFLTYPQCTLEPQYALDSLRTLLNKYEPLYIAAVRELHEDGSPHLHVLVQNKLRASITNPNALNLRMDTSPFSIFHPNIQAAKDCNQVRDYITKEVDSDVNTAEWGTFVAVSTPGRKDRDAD
Procedure: as §1

Sequence | uncleaved DNA left (log2) [1] | uncleaved DNA left (log2) [2] | uncleaved DNA left (log2) [3] | uncleaved DNA left (log2) [4] | uncleaved DNA left (log2) [5] | uncleaved DNA left (log2) [6] | uncleaved DNA left (log2) [7] | uncleaved DNA left (log2) [8] | uncleaved DNA left (log2) [9] | uncleaved DNA left (log2) [10]
CAGCAAA | 0.0377 | 0.0797 | 0.0515 | -0.312 | 0.161 | -0.494 | -0.0603 | 0.0717 | 0.127 | 0.0922
TCCGGAG | 0.103 | -0.155 | -0.265 | -0.0301 | -0.201 | -0.506 | -0.0178 | -0.000957 | -0.146 | -0.102
GAATCAT | -0.0841 | 0.165 | -1.14 | -1.02 | 0.0308 | 1.82 | -0.903 | -0.0919 | 0.083 | 0.0663
CGCAGAA | 0.127 | 0.22 | 0.112 | 0.17 | 0.244 | -0.262 | 0.133 | 0.107 | 0.0619 | 0.115
CCTCGAG | -0.00695 | 0.0785 | -0.149 | 0.0603 | 0.0675 | -0.671 | 0.0962 | 0.0367 | -0.0519 | 0.078
ACGATAC | 0.0293 | 0.0359 | -0.101 | -0.369 | 0.109 | -0.56 | 0.188 | 0.14 | -0.046 | -0.0588
CACAGCT | 0.00479 | -0.00499 | -0.53 | -1.91 | -0.0847 | -1.1 | -0.209 | -0.0592 | 0.0512 | -0.206
CACAATA | -0.109 | -0.194 | -0.339 | -2.97 | -0.0205 | -0.738 | -0.241 | 0.0502 | -0.263 | -0.0772
CACCTAG | -0.175 | -0.183 | -0.807 | -0.412 | 0.0203 | -1.05 | -0.0595 | -0.0723 | -0.0123 | -0.148
CGTGCGC | 0.0259 | -0.16 | -0.729 | -0.551 | -0.0152 | -0.769 | 0.0123 | -0.196 | -0.0308 | -0.184
GGACTTT | -0.0953 | -0.0907 | 0.737 | 1.76 | -0.124 | 2.06 | -0.0112 | -0.133 | -0.0654 | 0.0466
TAGGGTT | 0.0345 | -0.0588 | -0.0656 | 0.148 | -0.0431 | 1.59 | -1.6 | 0.0301 | -0.0713 | -0.0776
CACTTAC | 0.0424 | -0.0616 | -0.39 | -2.47 | -0.0625 | -1.09 | -0.245 | -0.132 | -0.114 | -0.151
ATTAGTG | 0.0893 | 0.00483 | -0.6 | -0.613 | 0.0491 | -1.14 | 0.313 | 0.138 | 0.118 | 0.133
TCATGAA | 0.0343 | -0.0746 | -0.0915 | -0.441 | 0.104 | -0.688 | -0.148 | 0.0549 | 0.0269 | -0.0348
CTTACAG | 0.0648 | 0.0577 | -0.963 | -2.12 | 0.0509 | -1.07 | 0.152 | -0.0175 | 0.122 | -0.083
CAGCAAG | 0.0759 | -0.0491 | -0.653 | -0.359 | -0.0296 | -0.961 | 0.226 | -0.0469 | -0.0166 | -0.0418
TCCGGGC | -0.00812 | 0.000783 | 0.307 | 0.681 | 0.0969 | 1.28 | 0.121 | 0.0572 | -0.0256 | -0.0139
GGTTAAA | 0.0433 | 0.115 | 0.433 | 1.08 | 0.0526 | 1.68 | 0.0443 | 0.185 | 0.0572 | 0.0707
TCGCTTC | 0.0549 | -0.0193 | 0.204 | -0.118 | 0.12 | -0.626 | 0.0627 | -0.121 | 0.00453 | -0.114
GGAGTAT | 0.0628 | 0.197 | 0.645 | 1.67 | 0.0312 | 2.21 | 0.151 | 0.103 | 0.223 | 0.267
GGACAGA | 0.195 | 0.301 | 1.13 | 2.22 | 0.232 | 2.48 | 0.378 | 0.292 | 0.137 | 0.361
GATAAGC | 0.121 | 0.102 | 0.0931 | 0.179 | 0.201 | -0.439 | 0.256 | 0.0873 | 0.102 | 0.0736
CTGCGTA | -0.0905 | -0.194 | -1.11 | -0.612 | -0.0225 | -0.99 | -0.123 | -0.166 | -0.0843 | -0.362
TTCTACT | -3.64 | -0.63 | -1 | -2.94 | -0.17 | -0.276 | -3.52 | -0.187 | -0.0564 | -0.226
AGTGCAC | 0.0576 | 0.11 | -0.019 | 0.299 | -0.00839 | -0.144 | 0.0644 | 0.0619 | 0.0597 | 0.00182
AAACCCC | -0.147 | -0.00532 | 0.186 | -0.256 | -0.0204 | 0.0198 | -0.693 | -0.0788 | 0.0261 | 0.0383
CTCTGTT | -2.55 | -0.683 | -1.1 | -2.57 | -0.0788 | -0.633 | -3.09 | -0.137 | -0.0122 | -0.497
CCCCCAG | -0.0805 | -0.0946 | -0.532 | -0.509 | 0.0746 | -0.882 | -0.0277 | 0.0211 | -0.0267 | -0.204
CGTTCGT | -0.0814 | -0.0648 | -0.435 | -0.695 | 0.0464 | -0.926 | -0.033 | -0.183 | 0.0344 | -0.0505

— the supplement of paper PMC7826260
